Data reported in PMC2779657.
No constants are given. Whether binding was seen depends on the method and setting. Binding seen in cells or lysates may run through a third protein. Some entries that bind do so weakly or less than the wild type.

Sequences of proteins named here, by UniProt entry; tags and fusion partners are left off. A change or cut given only in a name is not applied to a line headed by its entry. Residues count along the entry.
UniProt P61073: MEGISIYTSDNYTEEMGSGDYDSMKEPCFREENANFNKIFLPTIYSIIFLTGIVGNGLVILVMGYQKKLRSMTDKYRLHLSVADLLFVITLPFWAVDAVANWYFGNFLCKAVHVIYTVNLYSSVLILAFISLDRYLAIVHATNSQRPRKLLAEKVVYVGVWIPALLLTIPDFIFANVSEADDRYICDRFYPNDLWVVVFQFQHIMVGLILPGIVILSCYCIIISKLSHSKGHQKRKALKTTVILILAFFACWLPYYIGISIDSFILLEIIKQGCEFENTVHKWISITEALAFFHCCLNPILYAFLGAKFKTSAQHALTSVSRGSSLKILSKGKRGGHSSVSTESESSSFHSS
GFP-WHIM CXCR4 (WHIM R334X mutant CXCR4 lacking the 19 carboxy-terminal residues, with an N-terminal GFP fusion): residues 1-333 of P61073
UniProt P29066: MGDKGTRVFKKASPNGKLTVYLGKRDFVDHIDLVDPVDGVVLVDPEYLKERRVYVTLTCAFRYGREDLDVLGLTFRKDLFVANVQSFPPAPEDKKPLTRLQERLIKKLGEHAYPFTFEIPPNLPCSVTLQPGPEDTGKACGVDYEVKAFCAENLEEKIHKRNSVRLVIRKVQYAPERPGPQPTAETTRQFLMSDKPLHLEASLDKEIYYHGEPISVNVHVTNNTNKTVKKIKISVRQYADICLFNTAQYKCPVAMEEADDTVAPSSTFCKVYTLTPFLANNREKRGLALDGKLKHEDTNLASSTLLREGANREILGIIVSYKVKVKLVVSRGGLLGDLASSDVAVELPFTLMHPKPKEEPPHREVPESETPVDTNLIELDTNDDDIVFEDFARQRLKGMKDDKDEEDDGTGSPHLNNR
UniProt P29067: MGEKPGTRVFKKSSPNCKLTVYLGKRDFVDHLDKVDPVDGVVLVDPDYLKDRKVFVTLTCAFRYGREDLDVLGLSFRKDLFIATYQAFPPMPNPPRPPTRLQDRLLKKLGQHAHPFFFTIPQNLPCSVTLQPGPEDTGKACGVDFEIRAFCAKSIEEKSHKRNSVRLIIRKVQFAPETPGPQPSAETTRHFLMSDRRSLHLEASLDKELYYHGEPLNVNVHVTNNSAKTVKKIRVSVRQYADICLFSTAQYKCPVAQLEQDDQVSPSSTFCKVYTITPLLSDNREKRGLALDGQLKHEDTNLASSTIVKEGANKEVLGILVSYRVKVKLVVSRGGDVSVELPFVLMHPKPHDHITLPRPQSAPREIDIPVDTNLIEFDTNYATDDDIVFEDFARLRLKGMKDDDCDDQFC
UniProt P35626: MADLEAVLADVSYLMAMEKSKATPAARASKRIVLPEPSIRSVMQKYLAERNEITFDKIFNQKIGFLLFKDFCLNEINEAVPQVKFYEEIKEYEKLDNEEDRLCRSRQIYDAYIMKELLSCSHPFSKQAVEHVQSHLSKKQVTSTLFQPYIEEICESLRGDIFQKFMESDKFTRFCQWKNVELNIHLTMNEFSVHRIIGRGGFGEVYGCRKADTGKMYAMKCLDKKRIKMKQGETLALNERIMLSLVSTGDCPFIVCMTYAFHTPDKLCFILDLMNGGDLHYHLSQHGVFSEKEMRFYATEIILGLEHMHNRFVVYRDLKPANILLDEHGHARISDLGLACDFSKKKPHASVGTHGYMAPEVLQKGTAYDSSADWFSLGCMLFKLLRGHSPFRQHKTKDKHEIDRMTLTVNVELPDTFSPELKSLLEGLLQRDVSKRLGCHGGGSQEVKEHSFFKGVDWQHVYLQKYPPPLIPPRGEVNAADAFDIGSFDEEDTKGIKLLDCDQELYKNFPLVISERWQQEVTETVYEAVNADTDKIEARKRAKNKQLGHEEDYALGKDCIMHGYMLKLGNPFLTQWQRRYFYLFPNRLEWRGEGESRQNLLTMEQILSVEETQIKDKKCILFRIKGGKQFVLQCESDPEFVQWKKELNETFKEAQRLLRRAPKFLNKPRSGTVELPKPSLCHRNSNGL
UniProt P43250: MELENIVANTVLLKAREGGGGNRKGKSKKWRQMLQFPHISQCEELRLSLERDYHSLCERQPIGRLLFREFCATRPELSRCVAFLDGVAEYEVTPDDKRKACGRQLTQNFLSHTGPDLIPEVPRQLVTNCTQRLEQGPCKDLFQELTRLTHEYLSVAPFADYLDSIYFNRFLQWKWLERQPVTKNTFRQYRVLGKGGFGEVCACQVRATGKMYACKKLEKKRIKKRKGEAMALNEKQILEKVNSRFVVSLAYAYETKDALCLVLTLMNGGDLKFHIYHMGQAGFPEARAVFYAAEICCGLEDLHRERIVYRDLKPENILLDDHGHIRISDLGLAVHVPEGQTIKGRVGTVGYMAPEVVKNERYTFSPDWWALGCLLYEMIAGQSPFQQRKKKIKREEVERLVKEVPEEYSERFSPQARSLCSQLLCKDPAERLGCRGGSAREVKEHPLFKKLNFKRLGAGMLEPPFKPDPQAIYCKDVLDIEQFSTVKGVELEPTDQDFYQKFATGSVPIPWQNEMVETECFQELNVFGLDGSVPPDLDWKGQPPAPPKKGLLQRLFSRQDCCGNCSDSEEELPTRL

Experiments:
[1] = target: GFP-WHIM CXCR4 (WHIM R334X mutant CXCR4 lacking the 19 carboxy-terminal residues, with an N-terminal GFP fusion) (human) (UniProt P61073); experiment: co-IP; HeLa cells with SDF-1/CXCL12 (25 ng/ml, 37°C) for 10 and 30 min; anti-GFP IP of GFP-CXCR4, blot with anti-FLAG for β-Arrestin 1
[2] = target: GFP-WT CXCR4 (wild-type human CXCR4 with an N-terminal GFP fusion) (human) (UniProt P61073); experiment: as above
[3] = target: GFP-WHIM CXCR4 (WHIM R334X mutant CXCR4 lacking the 19 carboxy-terminal residues, with an N-terminal GFP fusion) (human) (UniProt P61073); experiment: co-IP; HeLa cells with SDF-1/CXCL12 (25 ng/ml, 37°C) for 5 or 10 min; lysis in 1% Triton X-100, 150 mM NaCl, 50 mM Tris-HCl pH 7.5; anti-GFP IP of GFP-CXCR4, blot with anti-FLAG for β-Arrestin 2
[4] = target: GFP-WT CXCR4 (wild-type human CXCR4 with an N-terminal GFP fusion) (human) (UniProt P61073); experiment: as above
[5] = target: GFP-WHIM CXCR4 (WHIM R334X mutant CXCR4 lacking the 19 carboxy-terminal residues, with an N-terminal GFP fusion) (human) (UniProt P61073); experiment: condition: only 10 min with SDF-1/CXCL12 (25 ng/ml); co-IP; HeLa cells with SDF-1/CXCL12 (25 ng/ml, 37°C) for 5 or 10 min; lysis in 1% Triton X-100, 150 mM NaCl, 50 mM Tris-HCl pH 7.5; anti-GFP IP of GFP-CXCR4, blot with anti-FLAG for β-Arrestin 2
[6] = target: GFP-WHIM CXCR4 (WHIM R334X mutant CXCR4 lacking the 19 carboxy-terminal residues, with an N-terminal GFP fusion) (human) (UniProt P61073); experiment: co-IP; as a1, but cells without SDF-1/CXCL12; anti-GFP IP, blot for FLAG-β-Arrestin 2
[7] = target: GFP-WT CXCR4 (wild-type human CXCR4 with an N-terminal GFP fusion) (human) (UniProt P61073); experiment: as above
[8] = target: GFP-WHIM CXCR4 (WHIM R334X mutant CXCR4 lacking the 19 carboxy-terminal residues, with an N-terminal GFP fusion) (human) (UniProt P61073); experiment: co-IP; as a1, but cells with SDF-1/CXCL12 (25 ng/ml, 37°C) for 30 min before lysis; anti-GFP IP, blot for FLAG-β-Arrestin 2
[9] = target: GFP-WHIM CXCR4 (WHIM R334X mutant CXCR4 lacking the 19 carboxy-terminal residues, with an N-terminal GFP fusion) (human) (UniProt P61073); experiment: co-IP; HeLa cells with SDF-1/CXCL12 (25 ng/ml, 37°C; 10 min in the text, 30 min in the legend); anti-GFP IP of GFP-CXCR4, blot for endogenous Grk6 or Grk3
[10] = target: GFP-WT CXCR4 (wild-type human CXCR4 with an N-terminal GFP fusion) (human) (UniProt P61073); experiment: as above

## FLAG-tagged β-Arrestin 1 (from UniProt P29066 1-418)
[1]
  binding: binds
[2]
  binding: binds

## FLAG-tagged β-Arrestin 2 (from UniProt P29067 1-410)
[3]
  binding: binds weakly
[4]
  binding: binds
[5]
  binding: no binding
[6]
  binding: no binding (condition: cells without SDF-1/CXCL12)
[7]
  binding: no binding (condition: cells without SDF-1/CXCL12)
[8]
  binding: binds

## Grk3 (G protein-coupled receptor kinase 3) (from UniProt P35626 1-688) (enzyme)
[9]
  binding: binds
[10]
  binding: binds

## Grk6 (G protein-coupled receptor kinase 6) (from UniProt P43250 1-576) (enzyme)
[9]
  binding: no binding
[10]
  binding: binds
